Out of some 310,000 compounds screened, about 18,000 (5.8%) were called active. This list was built around the results that the source calls inconclusive (neither active nor inactive); the mix of calls is not that of the screen. The call rests on the fitted dose curve; in most records, active means well fitted inhibition curve with a large enough effect; inconclusive means small, poorly fitted or top-dose-only effect, or another doubt; inactive means no such curve, though single readings can be large or run the other way. Potencies of inconclusive entries are left out as doubtful fits.
Experiment: Primary qHTS for delayed death inhibitors of the malarial parasite plastid, 48 hour incubation
Details: P. falciparum luciferase growth in erythrocytes; series mostly up to 28.7 µM
Method in brief: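 Firefly luciferase activity from engineered P. falciparum reports growth; inhibitors lower the luminescent signal. Cultures contained 2% hematocrit erythrocytes at 0.1% final parasitemia.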
On the % scale 0 is the no-effect control and ±100 the full control effect; potency means the concentration at half of the fitted maximal effect; tags describe the fitted curve by direction and shape.

| SMILES | Potency | activity change, negative = inhibition |
| --- | --- | --- |
| Cc1cc(OCC(=O)OCC(=O)NCc2ccco2)ccc1Cl | inconclusive [inhibitor, full curve, poor fit] |  |
| COC(=O)C1=C(c2cccc(OCc3ccccc3)c2)C[C@@H]2CC[C@H]1N2C(=O)NCCOc1ccc(OC)cc1 | active: 7.38 µM |  |
| CC(=O)N1CCC2(CC1)C(C#N)=C(N)OC1=C2C(=O)CC(C)(C)C1 | inconclusive [inhibitor, partial curve, poor fit] |  |
| O=C(Nc1ccc(S(=O)(=O)N2CCCCC2)cc1)C1CCCN(C(=O)c2ccc(Cl)cc2)C1 (centres undefined) | inconclusive [inhibitor, partial curve, poor fit] |  |
| O=C(c1ccc([N+](=O)[O-])s1)N1CCN(c2cccc(Cl)c2)CC1 | inconclusive [inhibitor, single point] |  |
| O=C(CN(Cc1ccccc1)C(=O)CSc1nnc(COc2ccccc2)o1)NC1CCCC1 | inconclusive [inhibitor, single point] |  |
| Cc1ccc2[nH]c(=O)c(CN(CCCN3CCOCC3)C(=O)Nc3ccc(Cl)cc3)cc2c1 | active: 3.7 µM |  |
| Cc1ccc2nc(-c3cccc(NC(=O)c4ccco4)c3)[nH]c2c1 | inconclusive [inhibitor, single point] |  |
| CSc1nnc2c(n1)OC(c1ccccn1)N(C(C)=O)c1ccccc1-2 (centres undefined) |  | inactive: -35.2% [at 5.75 µM] |
| CS(=O)c1ccccc1COC(=O)Nc1ccccc1 (centres undefined) | inactive |  |
| Cc1ccccc1-c1noc(CCC(=O)NCC2CCCO2)n1 (centres undefined) | inactive |  |
| O=C(Nc1cccc(S(=O)(=O)N2CCCCC2)c1)C1CC(=O)N(c2ccc3c(c2)OCCO3)C1 (centres undefined) | inconclusive [inhibitor, partial curve] |  |
| CCOC(=O)c1ccc(Nc2cc(C)nc(-c3ccccc3)n2)cc1 | active: 10.4 µM |  |
| CCc1ccc(C2=NN(CCC(=O)NC3CCCCCC3)C(=O)CC2)cc1 | inconclusive [inhibitor, single point] |  |
| COc1cc2cc(CN(Cc3cccnc3)C(=O)NCc3ccccc3)c(=O)[nH]c2cc1OC | active: 9.28 µM |  |
| COc1ccc2sc3ccccc3c(=O)c2c1 | inactive |  |
| Cc1ccc(NC(=O)C(=O)NCCN2CCN(S(C)(=O)=O)CC2)cc1C | inactive |  |
| O=C(N/N=C1\CC(c2ccccc2)Oc2ccccc21)c1cccnc1 (centres undefined) | inconclusive [inhibitor, partial curve] |  |
| COc1ccc(OC)c(NC(=O)CSc2nnc(CNC(=O)COc3ccc(Cl)cc3)o2)c1 | inconclusive [inhibitor, full curve] |  |
| CC(=O)Nc1c(O)n(C)c2ccccc12 | inactive |  |
| Cc1ccc(C)c(SCC(=O)OC/C(O)=C(\C#N)c2nc3ccccc3[nH]2)c1 | inconclusive [inhibitor, single point] |  |
| O=S(=O)(Nc1ccc(N2CCOCC2)cc1)c1ccccc1 | inactive |  |
| COc1cc(OC)cc(C(=O)N/N=C/c2ccc(OC)c(COc3ccc(F)cc3)c2)c1 | inactive |  |

| SMILES | Potency | activity change, negative = inhibition |
| --- | --- | --- |
| CC(C(=O)NC1CCCC1)N(C(=O)Cn1nnc(-c2ccc(F)cc2)n1)c1ccccc1F (centres undefined) | inconclusive [inhibitor, single point] |  |
| O=C(O)CN1C(=O)c2cccc3c(Br)ccc1c23 | inconclusive [inhibitor, full curve, poor fit] |  |
| O=C(Nc1ccc(F)cc1F)C1CCCN1S(=O)(=O)c1ccc(-c2ccc(=O)[nH]n2)s1 (centres undefined) | inconclusive [inhibitor, partial curve] |  |
| COc1cccc(C2CC(c3ccccc3)=NN2S(=O)(=O)c2ccc(C)cc2)c1OC (centres undefined) | inconclusive [inhibitor, partial curve, poor fit] |  |
| Cc1cc(=O)oc2cc(OCC(=O)NC3CC(C)(C)NC(C)(C)C3)c(Cl)cc12 | inactive |  |
| CCOC(=O)C1=C(C)n2c(s/c(=C3\C(=O)Nc4ccccc43)c2=O)=NC1c1ccc(OC)cc1 (centres undefined) | inactive |  |
| O=[N+]([O-])c1ccc(NNC(=S)Nc2ccc(F)cc2)cc1 | inconclusive [inhibitor, single point] |  |
| O=C(CCl)NCCNC(=O)c1cc(OCC(F)(F)F)ccc1OCC(F)(F)F | inconclusive [inhibitor, partial curve, poor fit] |  |
| CC(=O)Nc1sc2c(c1C(c1ccccc1)N1CCOCC1)CCCC2 (centres undefined) | inconclusive [inhibitor, full curve, poor fit] |  |
| CCOc1ccccc1NS(=O)(=O)c1cccc2nsnc12 | inactive |  |
| CC(=O)Nc1ccc2nc(CN3CCN(CC=C(C)C)C(CCO)C3)ccc2c1 (centres undefined) | inactive |  |
| Cc1[nH]c2ccc(C(=O)N3CCN(Cc4ccccc4)CC3)cc2c1C | inconclusive [inhibitor, partial curve, poor fit] |  |
| NC(=O)C(c1ncc(C(F)(F)F)cc1Cl)c1c(Cl)cccc1Cl (centres undefined) | inconclusive [inhibitor, single point] |  |
| CCNC(=O)CC1C(=O)N(c2ccc(C)cc2)C(=O)N1CCOC (centres undefined) | inactive |  |
| COc1cccc(-c2nc(CS(=O)(=O)CC(=O)Nc3ccccc3Cl)c(C)o2)c1 | inactive |  |
| CN(c1ccc(C(=O)N2CCCCCC2)cc1)S(=O)(=O)c1ccc(Cl)cc1 | inconclusive [inhibitor, single point] |  |
| O=C(Nc1cc(S(=O)(=O)N2CCOCC2)ccc1O)c1ccc(NS(=O)(=O)c2ccc(Cl)s2)cc1 | inactive |  |
| O=C(NCc1cccnc1)c1ccc([N+](=O)[O-])o1 | active: 4.15 µM |  |
| Cc1ccc(N2C(=O)c3cccc4c(N)ccc(c34)C2=O)c2cccnc12 | inconclusive [inhibitor, single point] |  |
| COc1ccc(C2=NN(C(=O)c3ccco3)C(c3ccco3)C2)cc1OC (centres undefined) | inactive |  |
| NC(=O)c1ccccc1NC(=O)N1CCOCC1 | inactive |  |
| CCOC(=O)C1=CC[C@@H](c2cccc(C)c2)N(S(=O)(=O)c2ccc(C)cc2)[C@H]1C(=O)OCC | inconclusive [inhibitor, partial curve, poor fit] |  |
| O=C(CSc1ncccn1)NCc1ccccc1 | inactive |  |

| SMILES | Potency | activity change, negative = inhibition |
| --- | --- | --- |
| CC1CCN(CCNC(=S)Nc2ccc(Cl)cc2)CC1 | inconclusive [inhibitor, single point] |  |
| C[C@H](NC(=O)OCc1ccccc1)c1nnc([C@H](Cc2ccccc2)NC(=O)OC(C)(C)C)o1 | inconclusive [inhibitor, single point] |  |
| Nc1nnn(CC(=O)N/N=C/c2ccccc2Cl)n1 | inactive |  |
| CC(C)Oc1ccc(S(=O)(=O)N2CCCCC2)cc1NC(=O)C1CSC2(C)CCC(=O)N12 (centres undefined) | active: 11.7 µM |  |
| O=C(Cn1nc2ccccc2n1)N/N=C/c1cc(Cl)cc([N+](=O)[O-])c1O | inconclusive [inhibitor, single point] |  |
| O=C(c1ccco1)N1CCN(C(c2ccccc2)c2nnnn2C2CCCC2)CC1 (centres undefined) | inconclusive [inhibitor, partial curve] |  |
| Cn1ncc2c(N3CCCCC3)nc(NCCCO)nc21 | inactive |  |
| C=CCn1c(SCC(=O)Nc2nc3ccccc3s2)nnc1-c1ccccc1O | inconclusive [inhibitor, single point] |  |
| Fc1ccc(-n2cc(-c3ccccc3)c3c(=S)nc[nH]c32)cc1 | inconclusive [inhibitor, single point] |  |
| O=C(NCCC1CCCCN1S(=O)(=O)c1ccc(F)cc1)C(=O)NCCN1CCOCC1 (centres undefined) | inactive |  |
| CC(C)(C)c1ccc(C(=O)c2c[nH]c(C(=O)NCc3ccco3)c2)cc1 | inconclusive [inhibitor, single point] |  |
| CNC(=S)N/N=C/c1cc(C)n(-c2ccc(Cl)c(Cl)c2)c1C | active: 14.7 µM |  |
| Cc1ccc(C)c(N2CCN(C(=O)c3ccc(Cn4c(=O)[nH]c5ccccc5c4=O)cc3)CC2)c1 | inconclusive [inhibitor, partial curve] |  |
| Cc1cccc(NC(=O)c2ccc3c(c2)OCCO3)c1C | inactive |  |
| O=C(c1cccn2c(=O)c3cc4ccccc4cc3nc12)N1CCN(c2ccccc2)CC1 | inconclusive [inhibitor, single point] |  |
| CCCCCC(=O)Nc1cc(N(C)C)nc2ccccc12 | inconclusive [inhibitor, single point] |  |
| Cc1cccn2c(=O)c3cc(C(=O)NC4CCCCC4)c(=N)n(Cc4ccc(F)cc4)c3nc12 | inconclusive [inhibitor, full curve] |  |
| CC(=O)c1cccc(NC(=O)C(OC(=O)c2ccccc2NS(=O)(=O)c2cccs2)c2ccccc2)c1 (centres undefined) | inconclusive [inhibitor, single point] |  |
| COc1ccc(NC(=O)CN2CCN(c3ccccc3Cl)CC2)cc1 | inconclusive [inhibitor, single point] |  |
| O=[N+]([O-])c1cccc(-c2ncc3ccccn23)c1 | inconclusive [inhibitor, full curve, poor fit] |  |
| COC(=O)Cn1c(C(=O)N2CCCC2)cc2c1C[C@H]1CN(C(=O)c3ccccc3)[C@@](Cc3ccc(F)cc3)(C(=O)OC)[C@@H]21 | active: 5.22 µM |  |
| Cc1ccccc1-n1c(SCC(=O)NC(N)=O)nc2sc(-c3ccccc3)cc2c1=O | inconclusive [inhibitor, partial curve, poor fit] |  |
| COc1ccc(COCC(O)CN2CCN(S(=O)(=O)c3ccc(C(C)C)cc3)CC2)cc1 (centres undefined) | inconclusive [inhibitor, single point] |  |
